Out of some 140,000 compounds screened, about 240 (0.17%) were called active. Inconclusive results, whose numbers are uncertain, are shown with a selection of clear calls. The call rests on the fitted dose curve; in most records, active means well fitted inhibition curve with a large enough effect; inconclusive means small, poorly fitted or top-dose-only effect; inactive means no such curve, though single readings can be large or run the other way. Potencies of inconclusive entries are doubtful fits and often do not repeat.
test: Primary qHTS assay for inhibitors of alpha-synuclein gene (SNCA) expression; details: HEK-293 SNCA-luciferase knock-in, luminescence, 24 h; series mostly up to 57.2 µM; further: nearly all actives have a fitted effect of over 45% in size
Potency means the concentration at half of the fitted maximal effect; tags describe the fitted curve by direction and shape.

Potency, inconclusive:
COc1ccc(C(=O)N2CCC(C(=O)N3CCC4(CC3)CC(=O)Nc3ccccc3O4)C2)cc1 (configuration not stated) 6.31 µM [inhibitor, full curve]
Clc1ccc(C(c2ccc(Cl)cc2)n2cc[n+](CC(OCc3ccc(Cl)cc3Cl)c3ccc(Cl)cc3Cl)c2)cc1 (configuration not stated) 10 µM [inhibitor, partial curve]
COc1ccc(NC(=O)[C@@H]2C[C@H](c3ccc(F)cc3)N(Cc3ccccc3Cl)C2)cn1 31.6 µM [inhibitor, single point]
Cc1cccc(NC(=O)CSc2nc3n[nH]c(C)c3c(=N)n2-c2cccc(Cl)c2)c1 20 µM [inhibitor, single point]
CCOc1ccc(N(Cc2ccccc2)C(=O)c2nc(SC)ncc2Cl)cc1 39.8 µM [inhibitor, single point]
O=C1CCSC2(C(=O)N(Cc3ccc(F)cc3)c3ccccc32)N1c1ccc(Cl)cc1 (configuration not stated) 3.16 µM [inhibitor, single point]
CN(C)C(=O)C1CCc2nnc(CNC(=O)Nc3cccnc3)n21 (configuration not stated) 22.4 µM [inhibitor, single point]
O=C(CN1CCCC1=O)N1CCN(Cc2ccccc2)CC1 7.94 µM [inhibitor, single point]
O=c1cc(-c2cccnc2)oc2c(-c3ccccc3F)nccc12 56.2 µM [inhibitor, single point]
O=C(CSc1n[nH]c(-c2ccc(F)cc2)n1)NCc1ccccc1Cl 7.08 µM [inhibitor, single point]
CCOc1c(Br)cc(C2CC(=O)Nc3cc4c(cc32)OCO4)cc1OC (configuration not stated) 3.16 µM [inhibitor, partial curve, poor fit]
COc1ccc([C@H]2C[C@@H](O)[C@@H](O)[C@@H]2NCc2ccc(OC)nc2)cc1 50.1 µM [inhibitor, single point]
O=C1N(CCc2ccccc2)c2ccccc2C12CCN([S+](=O)([O-])c1cccs1)C2 (configuration not stated) 39.8 µM [inhibitor, single point]
COc1ccc(CNC(=O)CN2C(=O)NC(c3ccccc3Cl)C3=C2COC3=O)cc1 (configuration not stated) 10 µM [inhibitor, partial curve, poor fit]

Potency, inactive:
COc1ccc(Cl)cc1NC(=O)N1CCN(Cc2cc(=O)n3nc(-c4ccccc4)sc3n2)CC1
COc1cccc([S+](=O)([O-])N2CCC3(CC2)C(=O)NCN3Cc2ccc(Cl)cc2)c1
COc1ccc(CC(=O)NC2CCN(c3nccc(Nc4ccccc4F)n3)CC2)cc1

Source: PubChem BioAssay AID1671194 (National Center for Advancing Translational Sciences (NCATS), 2021)
